These results are taken from patent publication US20230303698A1 (published 2023).

Common to all, as to assay: FACS
For orientation: In flow cytometry, cells or beads pass a laser one at a time.

One test deals with T1, cynomolgus monkey 4-1BB (cynomolgus monkey).
T1 chain: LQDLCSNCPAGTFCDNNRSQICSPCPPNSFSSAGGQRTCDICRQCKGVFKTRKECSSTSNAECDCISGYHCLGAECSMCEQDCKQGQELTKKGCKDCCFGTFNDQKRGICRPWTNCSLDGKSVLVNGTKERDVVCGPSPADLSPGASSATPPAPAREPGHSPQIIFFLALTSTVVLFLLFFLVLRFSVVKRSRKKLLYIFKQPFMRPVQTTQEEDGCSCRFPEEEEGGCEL

In test [1] the target is T2, human 4-1BB (human, UniProt Q07011 24-255).
The next test has as its target T3, human OX40 (human, UniProt P43489 29-277).
T3 chain: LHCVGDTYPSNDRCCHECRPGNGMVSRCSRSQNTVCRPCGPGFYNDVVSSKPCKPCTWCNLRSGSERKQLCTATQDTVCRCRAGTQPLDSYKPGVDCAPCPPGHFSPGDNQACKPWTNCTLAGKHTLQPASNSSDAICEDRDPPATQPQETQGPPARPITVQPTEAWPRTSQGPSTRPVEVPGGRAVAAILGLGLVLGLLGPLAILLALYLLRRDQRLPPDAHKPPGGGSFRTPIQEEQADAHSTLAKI

Test [2] has as its target T2, human 4-1BB. This is another data set of the same source.

Like-named read-outs stand apart in the source and are kept apart here.

B1: PR003334 (bispecific antibody)
light: EIVMTQSPATLSVSPGERATLSCRASQSISSNLGWYQQKPGQAPRLLIYGASTRATGIPARFSGSGSGTEFTLTISSLQSEDFAVYYCQQYQSWPPLTFGGGTKVEIKRTVAAPSVFIFPPSDEQLKSGTASVVCLLNNFYPREAKVQWKVDNALQSGNSQESVTEQDSKDSTYSLSSTLTLSKADYEKHKVYACEVTHQGLSSPVTKSFNRGEC
heavy: QVQLVESGGGVVQPGRSLRLSCAASGFTFRSFGMHWVRQAPGKGLEWVAVISYDASNEYYADSVKGRFIISRDNSKDTLYLQMNSLRAGDTAVYYCAKGGGLRWYFAYWGQGTLVTVSSASTKGPSVFPLAPSSKSTSGGTAALGCLVKDYFPEPVTVSWNSGALTSGVHTFPAVLQSSGLYSLSSVVTVPSSSLGTQTYICNVNHKPSNTKVDKKV[letters of human IgG1 Fc with changes not shown]EPKSSDKTHTPPPPPRTEVQLLESGGGLVQLGGSLRLSCAASGFTFSRYAMTWVRQAPEKGLEWVSSISGSGDDTYYGDSVKGRFTISRDNSQNTVYLQMNSLRAEDTAVYFCAKEKAGTTGDYYYNVDVWGQGTTVTVSS
As for B1, the figures for the EC50 with cynomolgus monkey 4-1BB and with human 4-1BB [1] were 658 pM and 483 pM, respectively.

B2: PR004276 (bispecific antibody)
light: EIVMTQSPATLSVSPGERATLSCRASQSISSNLGWYQQKPGQAPRLLIYGASTRATGIPARFSGSGSGTEFTLTISSLQSEDFAVYYCQQYQSWPPLTFGGGTKVEIKRTVAAPSVFIFPPSDEQLKSGTASVVCLLNNFYPREAKVQWKVDNALQSGNSQESVTEQDSKDSTYSLSSTLTLSKADYEKHKVYACEVTHQGLSSPVTKSFNRGEC
heavy: QVQLVESGGGVVQPGRSLRLSCAASGFTFRSFGMHWVRQAPGKGLEWVAVISYDASNEYYADSVKGRFIISRDNSKDTLYLQMNSLRAGDTAVYYCAKGGGLRWYFAYWGQGTLVTVSSASTKGPSVFPLAPSSKSTSGGTAALGCLVKDYFPEPVTVSWNSGALTSGVHTFPAVLQSSGLYSLSSVVTVPSSSLGTQTYICNVNHKPSNTKVDKKV[letters of human IgG1 Fc with changes not shown]EPKSSDKTHTPPPPPRTEVQLLESGGGLVQPGGSLRLSCAASGFTFSSYAMSWVRQAPGKGLEWVSAISGRGGSTFYADSVRGRFTISRDNSKNTLYLQMNSLRAEDTAMYYCVDGTTGTTDVDYWGQGTLVTVSS
For B2, the midpoint of the response with human OX40, the EC50, lay at 2800 pM.

B3: PR003335 (bispecific antibody)
light: EIVMTQSPATLSVSPGERATLSCRASQSISSNLGWYQQKPGQAPRLLIYGASTRATGIPARFSGSGSGTEFTLTISSLQSEDFAVYYCQQYQSWPPLTFGGGTKVEIKRTVAAPSVFIFPPSDEQLKSGTASVVCLLNNFYPREAKVQWKVDNALQSGNSQESVTEQDSKDSTYSLSSTLTLSKADYEKHKVYACEVTHQGLSSPVTKSFNRGEC
heavy: QVQLVESGGGVVQPGRSLRLSCAASGFTFRSFGMHWVRQAPGKGLEWVAVISYDASNEYYADSVKGRFIISRDNSKDTLYLQMNSLRAGDTAVYYCAKGGGLRWYFAYWGQGTLVTVSSASTKGPSVFPLAPSSKSTSGGTAALGCLVKDYFPEPVTVSWNSGALTSGVHTFPAVLQSSGLYSLSSVVTVPSSSLGTQTYICNVNHKPSNTKVDKKV[letters of human IgG1 Fc with changes not shown]EPKSSDKTHTPPPPPRTEVQLVESGGGVVQPGGSLRLSCAASGFTFSNYAMTWVRQAPEKGLEWVSSISGSGVSTYYADSVKGRFTISRDNSKNTLYLQMTRLTAEDTAVYFCAKEGSSETDDHYYNVDVWGQGTTVTVSS
As to B3, the EC50 (in general, the midpoint of the concentration-response curve) was found to be 797 pM in the test with cynomolgus monkey 4-1BB, 740 pM in the test with human 4-1BB [1] and 1350 pM with human 4-1BB [2].

B4: PR003338 (bispecific antibody)
light: EIVMTQSPATLSVSPGERATLSCRASQSISSNLGWYQQKPGQAPRLLIYGASTRATGIPARFSGSGSGTEFTLTISSLQSEDFAVYYCQQYQSWPPLTFGGGTKVEIKRTVAAPSVFIFPPSDEQLKSGTASVVCLLNNFYPREAKVQWKVDNALQSGNSQESVTEQDSKDSTYSLSSTLTLSKADYEKHKVYACEVTHQGLSSPVTKSFNRGEC
heavy: QVQLVESGGGVVQPGRSLRLSCAASGFTFRSFGMHWVRQAPGKGLEWVAVISYDASNEYYADSVKGRFIISRDNSKDTLYLQMNSLRAGDTAVYYCAKGGGLRWYFAYWGQGTLVTVSSASTKGPSVFPLAPSSKSTSGGTAALGCLVKDYFPEPVTVSWNSGALTSGVHTFPAVLQSSGLYSLSSVVTVPSSSLGTQTYICNVNHKPSNTKVDKKV[letters of human IgG1 Fc with changes not shown]EPKSSDKTHTPPPPPRTEVQLLESGGGLVQPGGSLRLSCAASGFTFSNYAMSWFRQPPETGLKWVSSIDASGGDTYYADSVKGRFTISRDNSKNTLYLQMNSLRAEDTAVYYCAKEGSHGTDDSHYDVDVWGQGTTVTVSS
The molecule B4 gave an EC50 in the test with cynomolgus monkey 4-1BB of 1290 pM.

B5: PR003487 (bispecific antibody)
light: EIVMTQSPATLSVSPGERATLSCRASQSISSNLGWYQQKPGQAPRLLIYGASTRATGIPARFSGSGSGTEFTLTISSLQSEDFAVYYCQQYQSWPPLTFGGGTKVEIKRTVAAPSVFIFPPSDEQLKSGTASVVCLLNNFYPREAKVQWKVDNALQSGNSQESVTEQDSKDSTYSLSSTLTLSKADYEKHKVYACEVTHQGLSSPVTKSFNRGEC
heavy: QVQLVESGGGVVQPGRSLRLSCAASGFTFRSFGMHWVRQAPGKGLEWVAVISYDASNEYYADSVKGRFIISRDNSKDTLYLQMNSLRAGDTAVYYCAKGGGLRWYFAYWGQGTLVTVSSASTKGPSVFPLAPSSKSTSGGTAALGCLVKDYFPEPVTVSWNSGALTSGVHTFPAVLQSSGLYSLSSVVTVPSSSLGTQTYICNVNHKPSNTKVDKKV[letters of human IgG1 Fc with changes not shown]EPKSSDKTHTPPPPPRTEVQLVESGGGVVQPGGSLRLSCAASGFTFSNYAMTWVRQAPEKGLEWVSSISGSGVSTYYADSVKGRFTISRDNSKNTLYLQMTRLTAEDTAVYFCAKEGSSETDDHYYNVDVWGQGTTVTVSSEVQLVESGGGVVQPGGSLRLSCAASGFTFSNYAMTWVRQAPEKGLEWVSSISGSGVSTYYADSVKGRFTISRDNSKNTLYLQMTRLTAEDTAVYFCAKEGSSETDDHYYNVDVWGQGTTVTVSS
The molecule B5 returned an EC50 with human 4-1BB [1] of 755 pM.

B6: PR004277 (bispecific antibody)
chain 1: QVQLVESGGGVVQPGRSLRLSCAASGFTFRSFGMHWVRQAPGKGLEWVAVISYDASNEYYADSVKGRFIISRDNSKDTLYLQMNSLRAGDTAVYYCAKGGGLRWYFAYWGQGTLVTVSSASTKGPSVFPLAPSSKSTSGGTAALGCLVKDYFPEPVTVSWNSGALTSGVHTFPAVLQSSGLYSLSSVVTVPSSSLGTQTYICNVNHKPSNTKVDKKVEPKSC
chain 2: EIVMTQSPATLSVSPGERATLSCRASQSISSNLGWYQQKPGQAPRLLIYGASTRATGIPARFSGSGSGTEFTLTISSLQSEDFAVYYCQQYQSWPPLTFGGGTKVEIKRTVAAPSVFIFPPSDEQLKSGTASVVCLLNNFYPREAKVQWKVDNALQSGNSQESVTEQDSKDSTYSLSSTLTLSKADYEKHKVYACEVTHQGLSSPVTKSFNRGECEPKSSDKTHTPPPPPEVQLLESGGGLVQPGGSLRLSCAASGFTFSSYAMSWVRQAPGKGLEWVSAISGRGGSTFYADSVRGRFTISRDNSKNTLYLQMNSLRAEDTAMYYCVDGTTGTTDVDYWGQGTLVTVSS[letters of human IgG1 Fc with changes not shown]
In the case of B6, in the test with human OX40, the response was half-maximal at 3460 pM (EC50).
